Consider one molecule from paper PMC5643494, “TRPA1–FGFR2 binding event is a regulatory oncogenic driver modulated by miRNA-142-3p” (Nature Communications, 2017).

The target in this assay is T1, purified full-length human TRPA1 (human, UniProt O75762 1-1119, biotinylated with EDC-based carboxyl-biotinylation reagent (streptavidin pull-down); labeled with Alexafluor 488 (MST); unlabelled in the GST pull-down).
T1 construct: human TRPA1, full length; kept in PBS with 0.014% F-14; also called hTRPA1; full-length purified TRPA1; source: Pichia pastoris, purified (Ni-NTA)
Briefly: MST; Alexafluor 488-labeled TRPA1 or ΔN at constant 83 nM, purified FGFR2 titrated 1:1; PBS with 0.014% F-14; NanoTemper NT.115; apparent. The note with it: both partners purified.

T1 sequence (O75762 whole entry): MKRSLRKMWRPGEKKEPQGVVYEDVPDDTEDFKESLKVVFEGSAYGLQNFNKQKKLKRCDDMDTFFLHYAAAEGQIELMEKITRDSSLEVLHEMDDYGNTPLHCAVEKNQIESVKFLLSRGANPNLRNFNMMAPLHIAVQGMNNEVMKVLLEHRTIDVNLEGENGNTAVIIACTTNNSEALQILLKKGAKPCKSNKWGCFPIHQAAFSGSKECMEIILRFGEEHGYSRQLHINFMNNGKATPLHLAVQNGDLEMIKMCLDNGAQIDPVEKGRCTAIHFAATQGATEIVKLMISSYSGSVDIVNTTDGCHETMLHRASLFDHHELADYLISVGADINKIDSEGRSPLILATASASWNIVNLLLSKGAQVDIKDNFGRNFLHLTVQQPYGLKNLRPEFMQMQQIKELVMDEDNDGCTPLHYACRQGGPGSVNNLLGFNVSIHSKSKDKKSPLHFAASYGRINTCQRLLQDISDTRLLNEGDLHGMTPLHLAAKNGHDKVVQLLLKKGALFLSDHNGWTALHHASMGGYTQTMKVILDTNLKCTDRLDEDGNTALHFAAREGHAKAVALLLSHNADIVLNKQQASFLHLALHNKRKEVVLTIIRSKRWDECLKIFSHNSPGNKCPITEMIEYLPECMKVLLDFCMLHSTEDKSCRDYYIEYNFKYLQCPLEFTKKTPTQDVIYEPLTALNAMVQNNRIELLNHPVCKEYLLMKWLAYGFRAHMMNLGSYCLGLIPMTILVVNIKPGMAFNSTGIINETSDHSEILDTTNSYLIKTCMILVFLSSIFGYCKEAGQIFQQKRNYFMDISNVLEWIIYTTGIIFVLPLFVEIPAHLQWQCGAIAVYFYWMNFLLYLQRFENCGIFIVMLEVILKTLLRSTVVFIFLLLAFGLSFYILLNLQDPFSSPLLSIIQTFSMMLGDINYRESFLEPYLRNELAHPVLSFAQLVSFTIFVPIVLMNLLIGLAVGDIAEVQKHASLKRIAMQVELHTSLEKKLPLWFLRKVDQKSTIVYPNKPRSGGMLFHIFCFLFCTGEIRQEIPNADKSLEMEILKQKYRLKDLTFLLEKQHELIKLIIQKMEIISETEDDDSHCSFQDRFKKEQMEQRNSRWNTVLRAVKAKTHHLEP

B1: purified full-length FGFR2 (receptor)
chain: not shown
notes: FGFR2, customized purified full-length protein from OriGene; also called F2; full-length purified FGFR2; source: bought: OriGene (customized purified protein)
Take B1: the Kd turned out to be 123 ± 23.4 nM.
